From the supplement of paper PMC11417369
± gives the standard deviation of the averaged measurements. The list shows a part of the results.

Test system: PfAP2-LT AP2 domain (GST-tagged)
Experiment: gcPBM binding intensity (ln(normalized median fluorescence intensity)); higher = stronger DNA binding
How it was run: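 Probes on an Agilent 4 × 180k array were primer-extended, double-stranded and 36 bp long, taken from intergenic genomic regions, with negative controls added. GST-tagged P. falciparum DNA-binding domains from E. coli, about 25 μg on average, were applied to the array for 1 h in 1× PBS containing 1% milk, 0.2 mg/ml BSA, 0.5% salmon testes DNA and 0.03% Triton X-100. Binding intensity, obtained after Alexa488 anti-GST antibody detection and a 488 nm scan, is the highest Masliner-normalised natural-log median intensity across replicate spots of either probe orientation.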

| Sequence | gcPBM binding intensity (ln) |
| --- | --- |
| AAAATTATATATTATAGTACATAAAATATTGATAAA [XGTACX_site8988] | 8.61 ± 0.5 |
| AAATGTTATATATAATGTACTTGTAAGAACGTTCCT [XGTACX_site2840] | 8.73 ± 0.44 |
| ATAATTTTAAATAAATGTACATATAGATGTGTGTAA [XGTACX_site3958] | 8.9 ± 0.42 |
| AATAATGTATGAAATAAACACACAAGTAAGTACATA [CACACA_site8776] | 9.29 ± 0.5 |
| ATAATATGAAACTAAGGTACACATATATTAACAGAG [XGTACX_site3842] | 8.97 ± 0.54 |
| TACAAATTAATATGTACACACAAATATATATATATA [CACACA_site1977] | 9.41 ± 0.19 |
| TGCGACCATAATAAAGCACACAATGAAAAATATATA [CACACA_site256] | 8.93 ± 0.45 |
| TGTGCTCAAAATTATGCACACACCTAAAATTAATTT [CACACA_site8950] | 8.95 ± 0.33 |
| TAAGTATACTCATACACACACACACTAGAAAAAAAA [CACACA_site4397] | 9.68 ± 0.25 |
| AGAGATACATAAAAAAGTACATATAAAATTTAGGAA [XGTACX_site7201] | 8.88 ± 0.49 |
| TATTTATTTATATACACACACTTGTATAAAAAATGT [CACACA_site7048] | 9.02 ± 0.36 |
| TTTTTTTTTTTTTATTGTACATGCAAAAAATTCCAC [XGTACX_site2371] | 8.47 ± 0.42 |
| GTAAGTATATATAAATGTACTTATGAGGTCAAATTA [XGTACX_site3392] | 8.8 ± 0.4 |
| TTGGGTATTTTGTGCGCACACACATGCAAAAAGAAA [CACACA_site8299] | 9.36 ± 0.45 |
| TCTGTATTTCCTTATGCATGCATTAGCAAGATAATA [TGCATGCA_site483] | 8.78 ± 0.35 |
| ATATATATATATTGTAGTACTTATTAAATTATTTAT [XGTACX_site6235] | 8.84 ± 0.23 |
| TATACATATTTTATAGCACACAAATAATAATATGTA [CACACA_site8129] | 8.69 ± 0.44 |
| CCAACTATATTATGAAGTACATATATATTATATATA [XGTACX_site5767] | 8.7 ± 0.26 |
| AAACCTACATAACATACACACGCATATATATAATTT [CACACA_site8923] | 9.31 ± 0.38 |
| AAAGGTAAGCAGAATAGTACAGAAGAAAAAATATTT [XGTACX_site2941] | 8.96 ± 0.63 |
| TTTTGTTTGTTCGTGACTACATTATGTTGTAAATAC [CACACA_negctrl_site604] | 8.93 ± 0.41 |
| CAACATTTGAGACACACACACATACAAACAAACAAA [CACACA_site7538] | 9.86 ± 0.41 |
| ATCAAAAAAAAAAAATTTTTTTTTTTGTTTGTTTCC [CACACA_negctrl_site1042] | 8.27 ± 0.63 |
| TATCCTATAAATAATACATGCATATATATATATATT [TGCATGCA_site638] | 9.03 ± 0.23 |
